Binding signal data for six molecules are collected here from publication PMC12136788.

The other results are listed elsewhere or left out.

T1: UNK ZnF1-3 (human, UniProt Q9C0B0 31-174)
T1 sequence: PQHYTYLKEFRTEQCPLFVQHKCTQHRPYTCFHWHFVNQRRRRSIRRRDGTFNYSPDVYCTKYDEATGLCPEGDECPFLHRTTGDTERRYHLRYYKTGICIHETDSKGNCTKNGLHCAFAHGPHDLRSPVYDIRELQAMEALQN

B1: chr7:118215863:118215864:-_ENSMUSG00000005610_ENSMUST00000162415|mus_mus|motif|central (ssRNA)
RNA: GGGAGUUCUACAGUCCGACGAUCUAUUGCAACAACUCAAGUAUUACUGAGCAAAGUGCAUCUCUACAGUAUUCAGUGUUGCGGUUCAGUUUUCUAACUUAAAACAGCCUAUGGUAACUGGCAGCAAAGAAGGUCCUUGCAAUACAACAGAGGAUUGAGCAUCA
B2: chr6:38652254:38652255:-_ENSG00000124767_ENST00000373365|hu_hu|hu_hu_hu_mus_False|28_58 (ssRNA)
RNA: GGGAGUUCUACAGUCCGACGAUCCGAGAACUUCAUAGCAGGGAAGUCAAGCUUCUGCAGGAGGGUCAGUCCAAGAACUCUAGUAUAAAAAUCCAGGGACUUCUUAGGAUCCUUCACUCUUAGCAUCGUUUGCUGCAGUAGAAACAACAGAGGAUUGAGCAUCA
B3: chr1:115276673:115276674:-_ENSG00000009307_ENST00000339438|perfect_dup|motif|central (ssRNA)
RNA: GGGAGUUCUACAGUCCGACGAUCUGUGAAUUCCACAUCAUCGCCAGGCUGUAAGGUUUCUAAGUCACCCUUAAAUUCACGGUAGUGAAAGAAUAUCUCUUUUACAACAUCACCUCUUUCAAUAAAGCCAAAUGCCUCCUUCAUCAACAGAGGAUUGAGCAUCA
B4: chrX:98860016:98860017:+_ENSMUSG00000034160_ENSMUST00000044475|mus_mus|motif|central (ssRNA)
RNA: GGGAGUUCUACAGUCCGACGAUCUUCUUUAUAGUGCAUCAGUGCUUCCUGCAGCUUGCCCUGCUGUUGCAGUACACUUGCGGAAUUGGAAUGUGCAGCAGCAAACUCUGGGAAGACUUCUAAUGCUUUGCGAUACAGGCGAACCAACAGAGGAUUGAGCAUCA
B5: chr1:226549179:226549180:-_ENSG00000143799_ENST00000366794|hu_mus|FALSE|FALSE (ssRNA)
RNA: GGGAGUUCUACAGUCCGACGAUCGGCCCUGGGUGCUGGGCACAGCCCACCCCUCGCACUUUACCACAGGGAUGUCUUAAAAUUGAACUUGAGUUUCAGCAGGUAUUUGAGAUUCACCUGAGCAAUGUCGUAGACAAUGUACUCCAACAGAGGAUUGAGCAUCA
B6: 113288042_113288162_3055_3pUTR_ENSG00000114999_ENST00000233336|human|control|control (ssRNA)
RNA: GGGAGUUCUACAGUCCGACGAUCCAGAACCCUACACGUUCUAACUGGGUAUACAUCUUCCCAGGAUCCGAUCAGAUCUCACUCCCAUCUCAGAAUUUCCCAAACACCAACCCAUCGGCUGCGUUGGGCCUCAAGGAUUAAUGACAACAGAGGAUUGAGCAUCA

In the test the target is T1, UNK ZnF1-3. In words: nsRBNS (natural sequence RNA bind-n-seq); RBNS binding buffer (assumed for nsRBNS): 25 mM Tris pH 7.5, 150 mM KCl, 3 mM MgCl2, 0.01% Triton X-100, 500 ug/ml BSA, 20 U/ml SUPERase-In, 4 C; UNK is unkempt and MSI1 is Musashi-1; names of the RNAs are library labels; protein concentration not given here; high values mean tight binding.
Molecule B1 showed a binding signal of 1.38 enrichment R.

Molecule B2 had a binding signal of 0.762 enrichment R.

In the case of B3, the binding signal was 1.2 enrichment R. The result for B4 reads 0.405 enrichment R; that for B5, 1.22 enrichment R. The result for B6 reads 0.348 enrichment R.
